# Measured values reported in the supplement of paper PMC8728848.
# This is one part of the list.
# Tests used:
# Test in all cases: glycan array binding signal (z-score within array); higher = stronger binding
# Conditions in all cases: glycan notation: IUPAC condensed, linker removed
# Gal(b1-3)Gal = target: Gal(b1-3)Gal
# Procedure, shortened: (§1)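 Negative Z-scores can be read as non-binding. The Z-score is calculated within each array and then averaged across arrays of one protein sequence at different concentrations or buffers and across linkers. Arrays, 3228 in all, were curated from the Consortium for Functional Glycomics database and kept only where the protein sequence was available.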
# Gal(b1-3)Gal(b1-4)GlcNAc = target: Gal(b1-3)Gal(b1-4)GlcNAc
# Procedure, shortened: as §1
# Gal(b1-3)GalNAc = target: Gal(b1-3)GalNAc
# Procedure, shortened: as §1
# [1] = target: Gal(b1-3)GalNAc(a1-3)[Fuc(a1-2)]Gal(b1-4)Glc
# Procedure, shortened: as §1
# [2] = target: Gal(b1-3)GalNAc(a1-3)[Fuc(a1-2)]Gal(b1-4)GlcNAc
# Procedure, shortened: as §1
# Gal(b1-3)GalNAc(b1-3)Gal = target: Gal(b1-3)GalNAc(b1-3)Gal
# Procedure, shortened: as §1
# [3] = target: Gal(b1-3)GalNAc(b1-3)Gal(a1-4)Gal(b1-4)Glc
# Procedure, shortened: as §1
# [4] = target: Gal(b1-3)GalNAc(b1-4)Gal(b1-4)Glc
# Procedure, shortened: as §1
# [5] = target: Gal(b1-3)GalNAc(b1-4)[Neu5Ac(a2-3)]Gal(b1-4)Glc
# Procedure, shortened: as §1
# Gal(b1-3)GlcNAc = target: Gal(b1-3)GlcNAc
# Procedure, shortened: as §1
# [6] = target: Gal(b1-3)GlcNAc(a1-3)Gal(b1-4)GlcNAc
# Procedure, shortened: as §1
# [7] = target: Gal(b1-3)GlcNAc(a1-6)Gal(b1-4)GlcNAc
# Procedure, shortened: as §1
# Gal(b1-3)GlcNAc(b1-2)Man = target: Gal(b1-3)GlcNAc(b1-2)Man
# Procedure, shortened: as §1
# [8] = target: Gal(b1-3)GlcNAc(b1-2)Man(a1-3)[Gal(b1-3)GlcNAc(b1-2)Man(a1-6)]Man(b1-4)GlcNAc(b1-4)GlcNAc
# Procedure, shortened: as §1
# [9] = target: Gal(b1-3)GlcNAc(b1-2)Man(a1-3)[Gal(b1-3)GlcNAc(b1-2)Man(a1-6)]Man(b1-4)GlcNAc(b1-4)[Fuc(a1-6)]GlcNAc
# Procedure, shortened: as §1
# [10] = target: Gal(b1-3)GlcNAc(b1-2)Man(a1-3)[GlcNAc(b1-4)][Gal(b1-3)GlcNAc(b1-2)Man(a1-6)]Man(b1-4)GlcNAc(b1-4)GlcNAc
# Procedure, shortened: as §1
# [11] = target: Gal(b1-3)GlcNAc(b1-2)[Gal(b1-3)GlcNAc(b1-6)]Man(a1-6)[Gal(b1-3)GlcNAc(b1-2)Man(a1-3)]Man(b1-4)GlcNAc(b1-4)GlcNAc
# Procedure, shortened: as §1
# [12] = target: Gal(b1-3)GlcNAc(b1-3)Gal(b1-3)GlcNAc
# Procedure, shortened: as §1
# [13] = target: Gal(b1-3)GlcNAc(b1-3)Gal(b1-4)Glc
# Procedure, shortened: as §1
# [14] = target: Gal(b1-3)GlcNAc(b1-3)Gal(b1-4)GlcNAc
# Procedure, shortened: as §1
# [15] = target: Gal(b1-3)GlcNAc(b1-3)Gal(b1-4)GlcNAc(b1-2)Man(a1-3)[Gal(b1-3)GlcNAc(b1-3)Gal(b1-4)GlcNAc(b1-2)Man(a1-6)]Man(b1-4)GlcNAc(b1-4)GlcNAc
# Procedure, shortened: as §1
# [16] = target: Gal(b1-3)GlcNAc(b1-3)Gal(b1-4)GlcNAc(b1-2)[Gal(b1-3)GlcNAc(b1-3)Gal(b1-4)GlcNAc(b1-6)]Man(a1-6)[Gal(b1-3)GlcNAc(b1-3)Gal(b1-4)GlcNAc(b1-2)Man(a1-3)]Man(b1-4)GlcNAc(b1-4)[Fuc(a1-6)]GlcNAc
# Procedure, shortened: as §1
# [17] = target: Gal(b1-3)GlcNAc(b1-3)Gal(b1-4)GlcNAc(b1-3)Gal(b1-4)GlcNAc(b1-2)[Gal(b1-3)GlcNAc(b1-3)Gal(b1-4)GlcNAc(b1-3)Gal(b1-4)GlcNAc(b1-6)]Man(a1-6)[Gal(b1-3)GlcNAc(b1-3)Gal(b1-4)GlcNAc(b1-3)Gal(b1-4)GlcNAc(b1-2)Man(a1-3)]Man(b1-4)GlcNAc(b1-4)[Fuc(a1-6)]GlcNAc
# Procedure, shortened: as §1
# [18] = target: Gal(b1-3)GlcNAc(b1-3)Gal(b1-4)GlcNAc(b1-6)[Gal(b1-3)GlcNAc(b1-3)]Gal(b1-4)Glc
# Procedure, shortened: as §1
# [19] = target: Gal(b1-3)GlcNAc(b1-3)Gal(b1-4)[Fuc(a1-3)]GlcNAc
# Procedure, shortened: as §1
# [20] = target: Gal(b1-3)GlcNAc(b1-3)Gal(b1-4)[Fuc(a1-3)]GlcNAc(b1-6)[Gal(b1-3)GlcNAc(b1-3)]Gal(b1-4)Glc
# Procedure, shortened: as §1
# [21] = target: Gal(b1-3)GlcNAc(b1-3)GalNAc
# Procedure, shortened: as §1
# [22] = target: Gal(b1-3)GlcNAc(b1-6)Gal(b1-4)GlcNAc
# Procedure, shortened: as §1
# [23] = target: Gal(b1-3)GlcNAc(b1-6)GalNAc
# Procedure, shortened: as §1
# [24] = target: Gal(b1-3)GlcNAc(b1-6)[Gal(b1-3)]GalNAc
# Procedure, shortened: as §1
# Gal(b1-3)GlcNAc6S = target: Gal(b1-3)GlcNAc6S
# Procedure, shortened: as §1
# [25] = target: Gal(b1-3)[Fuc(a1-4)]GlcNAc
# Procedure, shortened: as §1
# [26] = target: Gal(b1-3)[Fuc(a1-4)]GlcNAc(b1-2)Man
# Procedure, shortened: as §1
# [27] = target: Gal(b1-3)[Fuc(a1-4)]GlcNAc(b1-2)Man(a1-3)[Gal(b1-3)[Fuc(a1-4)]GlcNAc(b1-2)Man(a1-6)]Man(b1-4)GlcNAc(b1-4)[Fuc(a1-6)]GlcNAc
# Procedure, shortened: as §1
# [28] = target: Gal(b1-3)[Fuc(a1-4)]GlcNAc(b1-3)Gal(b1-3)[Fuc(a1-4)]GlcNAc
# Procedure, shortened: as §1
# [29] = target: Gal(b1-3)[Fuc(a1-4)]GlcNAc(b1-3)Gal(b1-4)[Fuc(a1-3)]GlcNAc
# Procedure, shortened: as §1
# [30] = target: Gal(b1-3)[Fuc(a1-4)]GlcNAc(b1-6)GalNAc
# Procedure, shortened: as §1
binder,measurement,setting,value
CaSRK1 (Capsicum annuum) (protein) MALCKIFPFAFILLSCSCYLISGQRFDYPTANLSTTWINSVSAPHSIDYTDGSRIRAILLRGTFGPRYACGFYCNGNCESYLFAIFIVQTNSASQITSPAIGFPQVVWSANRNNPVKINSTLQLTAEGDLVLRDADGTLAWSTNTAGKSVAGLSLTDEGNLALFDSKNATVWQSFDHPTDALVPGQKLVPGMKLTASVSRTNWTAGGLFALSAIDNGLVAFVESNPPQKYFEASVGGSNTSGGSNYVKYLNGSLTLFTHSADTTELILISITPASSAQYMKLESNGHLKVYEWTSRGWREVDDLLTGFRGECNYPTVCGRYGICTMGQCSCPTSSSSRTYFRPIDVRRPSLGCSEVTKLTCQNTKKHSPLEVEDVDYFAFKAGISDTDLNTCKRACLEKCSCKAAFFRSGLNSSRTRGDCYLPTEIFSIMNNEKDRTRYDSVAFIKVQV,glycan array binding signal (z-score),Gal(b1-3)Gal,-0.173
same,glycan array binding signal (z-score),Gal(b1-3)Gal(b1-4)GlcNAc,-0.531
same,glycan array binding signal (z-score),Gal(b1-3)GalNAc,-0.395
same,glycan array binding signal (z-score),[1],0.178
same,glycan array binding signal (z-score),[2],-0.146
same,glycan array binding signal (z-score),Gal(b1-3)GalNAc(b1-3)Gal,-0.283
same,glycan array binding signal (z-score),[3],-0.249
same,glycan array binding signal (z-score),[4],-0.444
same,glycan array binding signal (z-score),[5],0.04
same,glycan array binding signal (z-score),Gal(b1-3)GlcNAc,-0.317
same,glycan array binding signal (z-score),[6],-0.591
same,glycan array binding signal (z-score),[7],-0.301
same,glycan array binding signal (z-score),Gal(b1-3)GlcNAc(b1-2)Man,5.29
same,glycan array binding signal (z-score),[8],-0.553
same,glycan array binding signal (z-score),[9],-0.356
same,glycan array binding signal (z-score),[10],-0.118
same,glycan array binding signal (z-score),[11],-0.03
same,glycan array binding signal (z-score),[12],-0.295
same,glycan array binding signal (z-score),[13],-0.519
same,glycan array binding signal (z-score),[14],-0.055
same,glycan array binding signal (z-score),[15],0.511
same,glycan array binding signal (z-score),[16],-0.461
same,glycan array binding signal (z-score),[17],-0.395
same,glycan array binding signal (z-score),[18],-0.019
same,glycan array binding signal (z-score),[19],0.058
same,glycan array binding signal (z-score),[20],-0.503
same,glycan array binding signal (z-score),[21],-0.422
same,glycan array binding signal (z-score),[22],-0.25
same,glycan array binding signal (z-score),[23],-0.572
same,glycan array binding signal (z-score),[24],-0.384
same,glycan array binding signal (z-score),Gal(b1-3)GlcNAc6S,-0.378
same,glycan array binding signal (z-score),[25],-0.062
same,glycan array binding signal (z-score),[26],-0.011
same,glycan array binding signal (z-score),[27],-0.295
same,glycan array binding signal (z-score),[28],-0.577
same,glycan array binding signal (z-score),[29],-0.053
same,glycan array binding signal (z-score),[30],-0.532
